Laboratory results: PubChem BioAssay AID651820 (National Center for Advancing Translational Sciences (NCATS), 2012)
About 12,000 (3.5%) of roughly 340,000 compounds were called active. The shares of active, inactive and inconclusive entries below differ from those in the screen. Calls come from the whole dose curve; as a rule, active = well fitted inhibition curve with a large enough effect; inconclusive = small, poorly fitted or top-dose-only effect, or another doubt; inactive = no such curve, though single readings can be large or run the other way. No potency is given beside an inconclusive call; the fits are too rough.

test: qHTS Assay for Inhibitors of Hepatitis C Virus (HCV); details: Huh7.5.1 HCVcc-Cre (HCVcc is cell-culture hepatitis C virus) infection, luciferase reporter, 44 h; series mostly up to 41.8 µM
Procedure, shortened: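 Antiviral activity was scored by luciferase reporter output from cells infected with HCVcc-Cre (~0.5 moi) in presence of compound, 44 h infection period, cells seeded 1,000/well 4 h prior.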
Potency is the fitted concentration of half-maximal effect; tags give direction and shape of the fitted curve.

SMILES	Potency
Cc1ccc(N/C=C/C(=O)C(C)(C)C)c(O)c1	inactive
CN(C(=O)c1cccc(NC(=O)Cc2ccc([N+](=O)[O-])cc2)c1)C1CCCCC1	active: 3.16 µM
Cc1cc2nc3n(c2cc1C)CCCN3	inactive
CC(C)CN(C(=O)c1nn(C)c(=O)c2ccccc12)c1nc2ccccc2s1	inactive
O=C(CN(c1cccc(C(F)(F)F)c1)S(=O)(=O)c1ccc(Cl)c([N+](=O)[O-])c1)NCc1ccccc1Cl	inconclusive [inhibitor, single point]
NC(=O)C1Cc2ccccc2CN1C(=O)c1cc(C2CC2)nn1-c1ccccc1 (centres undefined)	inconclusive [inhibitor, partial curve]
COc1ccccc1C(CC(=O)Nc1ccccc1C)c1ccc(OC(C)C)cc1 (centres undefined)	inconclusive [inhibitor, partial curve]
CCCOc1ccc(C(F)(F)F)cc1NS(=O)(=O)c1ccc(Cl)nc1	inactive
Cn1c(/C(C#N)=C/c2ccc(-c3ccc(S(N)(=O)=O)cc3)o2)nc2ccccc21	inconclusive [inhibitor, partial curve]
CC(/C=N/NC(=O)c1cc(C(C)C)[nH]n1)=C\c1ccccc1	inconclusive [inhibitor, single point]
CCCCCc1nc2sc3c(c2c(=O)n1NC(=O)c1ccc([N+](=O)[O-])cc1)CC(C)(C)OC3	inconclusive [inhibitor, single point]
COc1cccc(SCc2noc(C(=O)NCC3CC3)c2C(=O)NCC2CC2)c1	inconclusive [inhibitor, full curve]
O=C(CSc1nnc(-c2ccccn2)n1Cc1ccco1)Nc1ccc2c(c1)OCO2	inactive
COc1cccc(-c2c(-c3cc(OC)cc(OC)c3)n(C)c3ccc(-c4cccc5[nH]ccc45)cc23)c1	inconclusive [inhibitor, partial curve]
CCOC(=O)CSc1nc2c(c(-c3ccc(C)o3)c1C#N)CCCC2	inconclusive [inhibitor, partial curve]
Cc1nc(N2CCN(C(=O)c3ccco3)CC2)nc2c1C(=O)CCC2	inactive
CC1(C)CC(=O)C(C(C#Cc2ccccc2)C2=C(O)CC(C)(C)CC2=O)=C(O)C1	inactive
CSc1ncc(Br)c(N2CC2)n1	inconclusive [inhibitor, single point]
Cc1nn2c(C)c(C(=O)Nc3ccccc3)cnc2c1-c1ccccc1	inconclusive [inhibitor, single point]
